SMILES strings stand for the structures. The source holds more than one record for some entries. This is not the full list of results. The source may hold further records. Rule for the calls: active = hit-call score of the fitted dose curve at least 0.9, where 1 is the maximum; inactive = score below 0.9. The values listed for one entry are repeats in other runs, samples, wells, individuals or studies. Counts like (3×) count equal records among those shown. More than one record can exist for a structure, and the calls need not agree.

Read-out in experiment [1]: Macrophage colony-stimulating factor (MCSF), CSF1 (gene 1435)
The experiment can be described thus: BSK_LPS_MCSF: BioMAP Diversity Plus: LPS Assay for Macrophage colony-stimulating factor (MCSF) Biomarker Activity (AID 2283083). Particulars: actives raise or lower the signal; primary human HUVEC with PBMC. The gist of the method: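 Human umbilical vein endothelial cells co-cultured with peripheral blood mononuclear cells were exposed to compound for 24 h. M-CSF levels were measured by ELISA, and bidirectional curve fitting used DMSO as the negative control and baseline.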

Read-out in experiment [2]: Tissue Factor, F3 (gene 2152)
In words: BSK_LPS_TissueFactor: BioMAP Diversity Plus: LPS Assay for Tissue Factor Biomarker Activity (AID 2283084). Particulars: actives raise or lower the signal; primary human HUVEC with PBMC. The gist of the method: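 Human umbilical vein endothelial cells co-cultured with peripheral blood mononuclear cells were dosed and stimulated with LPS. Cell-surface CD142 was quantified by ELISA at 24 h. Activity was fitted bidirectionally against DMSO baseline.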

Read-out in experiment [3]: Vascular cell adhesion molecule 1 (VCAM1), VCAM1 (gene 7412)
The experiment can be described thus: BSK_LPS_VCAM1: BioMAP Diversity Plus: LPS Assay for Vascular cell adhesion molecule 1 (VCAM1) Biomarker Activity (AID 2283086). Particulars: actives raise or lower the signal; primary human HUVEC with PBMC. The gist of the method:
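ELISA read-out of VCAM-1 at 24 h post-dosing in an LPS-driven HUVEC/PBMC primary human co-culture; gain or loss of signal fitted bidirectionally against DMSO baseline. Cytotoxicity tracked in parallel cultures by SRB total-protein staining.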

Read-out in another experiment: CD38, CD38 (gene 952)
The experiment can be described thus: BSK_SAg_CD38: BioMAP Diversity Plus: SAg Assay for CD38 Biomarker Activity (AID 2283087). Particulars: actives raise or lower the signal; primary human HUVEC with PBMC. The gist of the method: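 Measures CD38 on a human endothelial/PBMC co-culture driven by SEB and TSST-1, 24 h after compound exposure, using ELISA with fluorescence detection; DMSO defines baseline for bidirectional curve fitting.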

Read-out in experiment [4]: CD40, CD40 (gene 958)
In words: BSK_SAg_CD40: BioMAP Diversity Plus: SAg Assay for CD40 Biomarker Activity (AID 2283088). Particulars: actives raise or lower the signal; primary human HUVEC with PBMC. The method, boiled down: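 Human umbilical vein endothelial cells co-cultured with PBMC; CD40 levels measured by ELISA with fluorescence read-out 24 h after chemical dosing. Gain or loss of signal fitted bidirectionally against DMSO baseline.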

Read-out in another experiment: CD69, CD69 (gene 969)
In words: BSK_SAg_CD69: BioMAP Diversity Plus: SAg Assay for CD69 Biomarker Activity (AID 2283089).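 Note: cell surface CD69 protein quantified by ELISA with fluorescence detection.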 Particulars: actives raise or lower the signal; primary human HUVEC with PBMC. The gist of the method:
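Primary human vascular co-culture (umbilical vein endothelium with peripheral blood mononuclear cells) exposed to test chemical for 24 h. CD69 levels quantified by fluorescence ELISA; DMSO served as negative control for bidirectional fitting.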

Read-out in experiment [5]: Monocyte Chemoattractant Protein-1 (MCP1), CCL2 (gene 6347)
In words: BSK_SAg_MCP1: BioMAP Diversity Plus: SAg Assay for Monocyte Chemoattractant Protein-1 (MCP1) Biomarker Activity (AID 2283090). Particulars: actives raise or lower the signal; primary human HUVEC with PBMC. The gist of the method:
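Values derive from bidirectional fitting of ELISA-measured MCP1 against DMSO controls. Readings were taken 24 h after dosing human vascular endothelial cells co-cultured with peripheral blood mononuclear cells under superantigen stimulation.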

Read-out in experiment [6]: E-selectin (Homo sapiens) (UniProt P16581)
UniProt P16581, sequence (P16581 whole entry, looked up): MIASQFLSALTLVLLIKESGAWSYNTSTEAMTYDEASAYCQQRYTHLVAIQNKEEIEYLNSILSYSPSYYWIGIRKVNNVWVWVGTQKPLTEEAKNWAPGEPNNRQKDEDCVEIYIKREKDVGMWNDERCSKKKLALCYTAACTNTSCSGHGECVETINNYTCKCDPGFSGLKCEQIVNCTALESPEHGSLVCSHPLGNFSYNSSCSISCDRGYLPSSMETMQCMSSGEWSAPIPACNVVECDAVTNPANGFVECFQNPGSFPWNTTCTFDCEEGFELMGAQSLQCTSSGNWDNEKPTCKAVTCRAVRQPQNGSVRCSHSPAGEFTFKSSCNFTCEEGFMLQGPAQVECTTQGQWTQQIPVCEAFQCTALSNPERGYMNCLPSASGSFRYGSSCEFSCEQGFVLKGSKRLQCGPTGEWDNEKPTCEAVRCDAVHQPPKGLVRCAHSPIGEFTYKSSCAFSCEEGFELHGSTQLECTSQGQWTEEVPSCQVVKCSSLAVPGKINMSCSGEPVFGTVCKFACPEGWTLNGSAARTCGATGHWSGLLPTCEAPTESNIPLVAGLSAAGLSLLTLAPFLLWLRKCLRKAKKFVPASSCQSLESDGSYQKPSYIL
In words: BSK_SAg_Eselectin: BioMAP Diversity Plus: SAg Assay for Eselectin Biomarker Activity (AID 2283091). Particulars: actives raise or lower the signal; primary human HUVEC with PBMC. The method, boiled down:
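HUVEC co-cultured with PBMC, compound dosed then read at 24 h; E-selectin measured by ELISA. Activity fitted bidirectionally against DMSO as negative control and baseline.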

Experiment [7] is described as follows: BSK_SAg_PBMCCytotoxicity: PBMC Cytotoxicity Assessment in the BioMAP Diversity Plus: SAg Assay (AID 2283093).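 Note: PBMC superantigen activated with SEB plus TSST-1 one hour after compound addition; fitted both ways against DMSO so a hit may be loss or gain of signal.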 Particulars: primary human HUVEC with PBMC. The gist of the method: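 PBMC viability by Alamar Blue reduction, fluorescence read at 546/580 nm after 6 h dye exposure. Cells were dosed 1 h before SEB plus TSST-1 activation (20 ng/mL final each), then held 90 h; endothelial/PBMC human co-culture.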

A short description of experiment [8]: BSK_SAg_Proliferation: Cell Proliferation Assessment in the BioMAP Diversity Plus: SAg Assay (AID 2283095).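 Note: relative cell number as total protein by SRB absorbance in sub-confluent culture.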 Particulars: primary human HUVEC with PBMC. The method, boiled down: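 HUVEC/PBMC co-culture, 96-well. TCA-fixed (10%), 0.1% SRB stain, A560 at 96 h. Protein content used as viability readout; bidirectional fitting vs DMSO control.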
Read-out in experiment [9]: Secreted IgG (sIgG), gene 3500
The experiment can be described thus: BSK_BT_sIgG: BioMAP Diversity Plus: BT Assay for Secreted IgG (sIgG) Biomarker Activity (AID 2284226). Particulars: primary human B cells with PBMC. The gist of the method: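 Human B cell/PBMC co-culture; compound exposure 24 h; sIgG by ELISA; gain-of-signal fit vs DMSO baseline.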

Read-out in experiment [10]: Interleukin 6 (IL6), IL6 (gene 3569)
The experiment can be described thus: BSK_BT_xIL6: BioMAP Diversity Plus: BT Assay for Interleukin 6 (IL6) Biomarker Activity (AID 2284228). Particulars: primary human B cells with PBMC. The gist of the method:
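Human B cell plus PBMC co-culture exposed to test chemical for 24 h; secreted IL-6 quantified by Luminex xMAP bead assay. Activity fitted in the positive direction against DMSO as negative control and baseline.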

Read-out in experiment [11]: Interleukin 17A (IL17A), IL17A (gene 3605)
In words: BSK_BT_xIL17A: BioMAP Diversity Plus: BT Assay for Interleukin 17A (IL17A) Biomarker Activity (AID 2284229). Particulars: primary human B cells with PBMC. The method, boiled down: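 B cells co-cultured with PBMC were exposed to test chemicals, and secreted IL-17A was quantified 24 h after dosing by Luminex xMAP bead immunoassay. Activity was fitted in the gain direction against DMSO as baseline.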

Read-out in experiment [12]: Interleukin 17F (IL17F), IL17F (gene 112744)
The experiment can be described thus: BSK_BT_xIL17F: BioMAP Diversity Plus: BT Assay for Interleukin 17F (IL17F) Biomarker Activity (AID 2284243). Particulars: primary human B cells with PBMC. The method, boiled down:
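B cell/PBMC co-culture (human primary), 24 h compound exposure; sIL-17F by Luminex xMAP; gain-of-signal fit vs DMSO baseline.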

Read-out in experiment [13]: Actin alpha 1 (ACTA1), ACTA1 (gene 58)
In words: BSK_MyoF_ACTA1: BioMAP Diversity Plus: MyoF Assay for Actin alpha 1 (ACTA1) Biomarker Activity (AID 2284244). Particulars: primary human lung fibroblasts. The gist of the method:
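ELISA read-out of a-SMA in primary human lung fibroblast cultures, 24 h post-dosing. Activity scored in the positive direction versus DMSO baseline.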

Read-out in experiment [14]: Interleukin 2 (IL2), IL2 (gene 3558)
The experiment can be described thus: BSK_BT_xIL2: BioMAP Diversity Plus: BT Assay for Interleukin 2 (IL2) Biomarker Activity (AID 2284245). Particulars: primary human B cells with PBMC. The method, boiled down:
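Readout: supernatant IL-2 via Luminex xMAP after 24 h chemical dosing of a B cell/PBMC primary human co-culture. DMSO serves as negative control and baseline; increases in signal were fitted.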

Read-out in experiment [15]: Macrophage Inflammatory Protein-1 Alpha (MIP1a), CCL3 (gene 6348)
The experiment can be described thus: BSK_IMphg_MIP1a: BioMAP Diversity Plus: IMphg Assay for Macrophage Inflammatory Protein-1 Alpha (MIP1a) Biomarker Activity (AID 2284255). Particulars: primary human endothelial cells with macrophages. The gist of the method: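 MIP-1a protein levels were quantified by ELISA after 24 h treatment of human endothelial cell–macrophage co-cultures, compared with DMSO. Parallel cultures were fixed with TCA and stained with 0.1% SRB to gauge overt cytotoxicity.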

Read-out in experiment [16]: Intercellular Adhesion Molecule 1 (ICAM1), ICAM1 (gene 3383)
The experiment can be described thus: BSK_BF4T_ICAM1: BioMAP Diversity Plus: BF4T Assay for Intercellular Adhesion Molecule 1 (ICAM1) Biomarker Activity (AID 2284260). Particulars: primary human bronchial epithelial cells with fibroblasts. The gist of the method: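 ICAM-1 levels measured by ELISA after 24 h chemical treatment of bronchial epithelial cell/dermal fibroblast co-cultures, read against DMSO baseline. Overt cytotoxicity checked in parallel cultures by sulforhodamine B staining.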

Read-out in experiment [17]: KRT18 (gene 3875)
In words: BSK_BF4T_Keratin818: BioMAP Diversity Plus: BF4T Assay for Keratin 818 Biomarker Activity (AID 2284266). Particulars: primary human bronchial epithelial cells with fibroblasts. The gist of the method:
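Keratin 8/18 levels quantified by ELISA after 24 h chemical treatment of bronchial epithelial cell/dermal fibroblast co-cultures, fitted in positive direction relative to DMSO. Parallel SRB staining tracks overt cytotoxicity.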

Read-out in experiment [18]: Epidermal growth factor receptor (EGFR), EGFR (gene 1956)
The experiment can be described thus: BSK_BE3C_EGFR: BioMAP Diversity Plus: BE3C Assay for Epidermal growth factor receptor (EGFR) Biomarker Activity (AID 2284281). Particulars: primary human bronchial epithelial cells. The gist of the method: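 ELISA read-out of EGFR levels on human bronchial epithelial primary cells collected 24 h post-dosing. DMSO served as negative control and baseline for gain-of-signal fitting.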

Read-out in experiment [19]: KRT18 (gene 3875)
In words: BSK_BE3C_Keratin818: BioMAP Diversity Plus: BE3C Assay for Keratin 818 Biomarker Activity (AID 2284282). Particulars: primary human bronchial epithelial cells. The method, boiled down:
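ELISA read-out of Keratin 8/18 in BE3C human bronchial epithelial cultures, 24 h post-dosing; positive-direction fit vs DMSO baseline.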

Read-out in experiment [20]: Matrix Metallopeptidase 9 (MMP9), MMP9 (gene 4318)
In words: BSK_BE3C_MMP9: BioMAP Diversity Plus: BE3C Assay for Matrix Metallopeptidase 9 (MMP9) Biomarker Activity (AID 2284283). Particulars: primary human bronchial epithelial cells. The gist of the method:
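Human primary bronchial epithelial cells in the BE3C system were dosed with compound for 24 h. MMP-9 was measured by ELISA, and the positive-direction response was fitted relative to DMSO as baseline. Parallel SRB staining gauged cytotoxicity.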

Read-out in experiment [21]: Plasminogen activator inhibitor-1 (PAI1), SERPINE1 (gene 5054)
In words: BSK_CASM3C_PAI1: BioMAP Diversity Plus: CASM3C Assay for Plasminogen activator inhibitor-1 (PAI1) Biomarker Activity (AID 2284284).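 Note: PAI-1 protein level measured by ELISA 24 h after dosing.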 Particulars: primary human coronary artery smooth muscle cells.

Read-out in experiment [22]: CD40, CD40 (gene 958)
The experiment can be described thus: BSK_IMphg_CD40: BioMAP Diversity Plus: IMphg Assay for CD40 Biomarker Activity (AID 2284288). Particulars: primary human endothelial cells with macrophages. The gist of the method: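 ELISA read-out of cell-surface CD40 at 24 h in human venular endothelial cell/macrophage co-cultures. Activity fitted in the positive direction against DMSO; parallel SRB staining (560 nm) gauges overt cytotoxicity.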

For the compound `FC(F)(I)C(F)(F)C(F)(F)C(F)(F)C(F)(F)C(F)(F)I`, the AC50 result is “active: 10.9, 18, 14.6, 45.6, 58.7 µM [separate samples]” in experiment [1]; “active: 14.7, 18.8, 44.8 (2×), 38.3 µM [separate samples]” in [2]; “active: 16.3, 23.3, 18.4, 49.7, 47.1 µM [separate samples]” in experiment [3]; “active: 9.8, 17.6, 10.9, 54.6, 53.1 µM [separate samples]” with CD38, CD38 (gene 952); “active: 15.8, 11.6, 9.61, 55, 49.7 µM [separate samples]” with CD40, CD40 (gene 958) [4]; “active: 14, 19.8, 9.28, 49.2, 49.7 µM [separate samples]” with CD69, CD69 (gene 969). The AC50 result is “active: 16.1, 18.7, 16.3, 48.9, 49.6 µM [separate samples]” in experiment [5]; “active: 9.78, 14.2, 17.7, 51, 52.1 µM [separate samples]” in [6]; “active: 15.6, 11.4, 16.1, 42.9, 42.3 µM [separate samples]” in experiment [7]; “active: 10.3, 9.84, 10.7, 37.8, 23.3 µM [separate samples]” in experiment [8]; “active: 14.6, 14.2, 14.7, 24.3, 44.6 µM [separate samples]” in [9]; “active: 16.4, 16, 17.5, 45.9, 49.1 µM [separate samples]” in experiment [10]. Moreover, the AC50 entry is “active: 13.1, 11.7, 16.1, 44.5, 36.3 µM [separate samples]” in experiment [11]; “active: 13.9, 8.41, 10.2, 21.8, 33.6 µM [separate samples]” in experiment [12]; “active: 2.21 µM, 885 nM, 2.02 µM, 3.65 µM, 2.66 µM [separate samples]” in experiment [13]; “active: 12.9, 16 (2×), 40.7, 48.3 µM [separate samples]” in experiment [14]; “active: 47.3 (2×), 54.9, 50.3, 15.5 µM [separate samples]” in experiment [15]; “active: 10.5, 7.91, 7.38, 19.9, 24.7 µM [separate samples]” in [16]. Also, the concentration at half-maximal activity (AC50) result with KRT18 (gene 3875) [17] is “active: 8.26, 8.16, 8.14, 45.7, 44.3 µM [separate samples]”; in [18] it was “active: 7.62, 8.26, 8.03, 34, 30 µM [separate samples]”; with KRT18 (gene 3875) [19] it was “active: 8.51, 16, 14.1, 42.5, 30 µM [separate samples]”; in [20], “active: 9.05, 14.3, 9.97, 39.5, 30 µM [separate samples]”; in experiment [21], “active: 19.1, 20.6, 10.2, 24.8, 41.6 µM [separate samples]”; with CD40, CD40 (gene 958) [22], “active: 28.8, 44.3, 9.53, 28.2 µM [separate samples]”.

As usually defined, the AC50 is the midpoint of the concentration-response curve, whichever way the signal moves.

Values taken from PubChem BioAssay (EPA / NIEHS).
